Source: PubChem BioAssay AID485294 (National Center for Advancing Translational Sciences (NCATS), 2010)
Screen size: about 370,000 compounds; about 150 (0.041%) were called active. Inconclusive results, whose numbers are uncertain, are shown with a selection of clear calls. Calls come from the whole dose curve; as a rule, active = well fitted inhibition curve with a large enough effect; inconclusive = small, poorly fitted or top-dose-only effect; inactive = flat fitted curve, though single readings scatter. No potency is given beside an inconclusive call; the fits are too rough.

These compounds were tested against Beta-lactamase (Escherichia coli (strain K12)) (UniProt P00811) (assay: qHTS Inhibitors of AmpC Beta-Lactamase (assay with detergent)). Conditions: AmpC hydrolysis of nitrocefin, absorbance 480 nm, 0.01% Triton; series mostly up to 114 µM.
UniProt P00811, sequence (P00811 whole entry, looked up): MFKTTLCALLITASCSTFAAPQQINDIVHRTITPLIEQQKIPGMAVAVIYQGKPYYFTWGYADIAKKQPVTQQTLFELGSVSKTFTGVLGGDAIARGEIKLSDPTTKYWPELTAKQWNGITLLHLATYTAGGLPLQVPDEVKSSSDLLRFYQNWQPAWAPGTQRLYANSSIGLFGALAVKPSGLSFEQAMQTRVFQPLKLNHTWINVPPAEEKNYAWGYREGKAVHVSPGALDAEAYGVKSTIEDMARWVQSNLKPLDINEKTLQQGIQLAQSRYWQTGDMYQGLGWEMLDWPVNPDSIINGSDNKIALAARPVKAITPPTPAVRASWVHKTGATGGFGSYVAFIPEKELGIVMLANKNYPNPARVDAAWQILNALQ
How it was run: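 20 mM phosphate pH 7.0 + 0.01% (detergent screen) or 0.0001% Triton X-100; 5.3 nM AmpC reagent; cpd preinc 15 min RT; nitrocefin (800 uM stock) to start; A480 q20 s × 4 min; Activity was normalised to no-enzyme and no-compound control wells.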
Note: nearly all actives have a fitted effect of over 25% in size.
Potency is the fitted concentration of half-maximal effect; tags give direction and shape of the fitted curve.

| Compound | Potency |
| --- | --- |
| CC1CN(S(=O)(=O)c2ccc(C(=O)NN3CCN(C)CC3)cc2)CC(C)O1 (stereo not given) | inconclusive [inhibitor, single point] |
| CCC1(c2ccc(F)cc2)NC(=O)N(CC(=O)N2CC(=O)Nc3ccccc32)C1=O (stereo not given) | inconclusive [inhibitor, full curve, poor fit] |
| Cc1ccccc1OCC(=O)OCC(=O)Nc1cc(S(=O)(=O)N2CCCCC2)ccc1Cl | inconclusive [inhibitor, partial curve, poor fit] |
| CC(C)N(C)S(=O)(=O)c1ccc(Cl)c(C(=O)O)c1 | inconclusive [inhibitor, partial curve, poor fit] |
| Cc1ccccc1C(C(=O)NCc1ccco1)N(CC1CCCO1)C(=O)Cn1nnc2ccccc21 (stereo not given) | inconclusive [inhibitor, partial curve, poor fit] |
| CCC1C(=O)n2nc(-c3ccccc3)cc2N=C1C (stereo not given) | inactive |
| CC(C)N(C)C(=O)c1ccc(OC2CCN(CCc3ccccc3)CC2)cc1 | inactive |
| O=C(CSc1n[nH]c(-c2cccnc2)n1)Nc1cccc(Cl)c1 | inconclusive [inhibitor, partial curve] |
| CC(c1ccccc1)N(CCC(c1ccccc1)C1CCOC(C)(C)C1)C(=O)c1ccco1 (stereo not given) | inconclusive [inhibitor, partial curve] |
| CCOC(=O)Cc1csc(NC(=O)c2cccnc2)n1 | inconclusive [inhibitor, full curve] |
| COc1ccc(Nc2nc(N3CCN(S(=O)(=O)N(C)C)CC3)nc3ccccc23)cc1 | inconclusive [inhibitor, full curve, poor fit] |
| CCOc1cc(Br)c(C2C(C(=O)OC)=C(C)NC3=C2C(=O)c2ccccc23)cc1OCC (stereo not given) | inactive |
| Cc1c2cnn(CC(=O)NCc3ccc(F)cc3)c(=O)c2c(C)n1Cc1ccccc1Cl | inactive |
| COc1cccc(Cn2cnc3c2c(=O)n(C)c(=O)n3C)c1 | inactive |
| Cc1ccc(NC(=O)CCN2CCCCC2)cc1 | inconclusive [inhibitor, full curve, poor fit] |
| CCn1nnnc1SCC(=O)Nc1ccc2c(c1)OCCO2 | inactive |
| O=C1COc2cc(S(=O)(=O)CCC(=O)N3CCCCC3)c(Cl)cc2N1 | inconclusive [inhibitor, full curve, poor fit] |
| Cc1ccccc1-c1nn(-c2ccc(F)cc2F)cc1CNCCN(C)C | inconclusive [inhibitor, partial curve] |
| Cc1cc(NC(=O)CC2CCCC2)ccc1Br | inactive |
| O=C(N/N=C/c1cc2c(cc1Br)OCO2)c1ccccn1 | inactive |
| COc1ccc(C(=O)Nc2cccc(-c3nc4cccnc4s3)c2C)c(OC)c1 | inactive |
| Oc1ccc(C[C@@H]2CNCCN2CC2(c3ccccc3)CC2)cc1 | inconclusive [inhibitor, single point] |

| Compound | Potency |
| --- | --- |
| COc1cc(-c2csc(C)n2)ccc1O | inconclusive [inhibitor, full curve] |
| NC(=O)c1c(NC(=O)c2ccccc2)sc2c1CCN(Cc1ccccc1)C2 | inactive |
| C#CCOc1cc(C2C3=C(COC3=O)Nc3cc4c(cc32)OCO4)ccc1OC (stereo not given) | inconclusive [inhibitor, full curve, poor fit] |
| Cc1ccc(-c2c(C)n3c4c(=O)n(C)c(=O)n(C)c4nc3n2CCCO)cc1 | inactive |
| COC(=O)c1ccc(C2C(C(=O)c3cc4ccccc4o3)=C(O)C(=O)N2CCN2CCOCC2)cc1 (stereo not given) | inactive |
| O=C(NCc1ccco1)c1ccc2c(c1)C(=O)N(Cc1ccccc1)C2=O | inactive |
| COc1ccc(/C=N/NC(=O)c2nc(-c3ccccc3)cc(-c3ccccc3)n2)cc1 | inconclusive [inhibitor, single point] |
| Cc1cccc(C)c1NC(=O)Cc1cccs1 | inconclusive [inhibitor, full curve, poor fit] |
| Cn1c(-c2ccc(F)cc2)cnc1NCc1ccc(F)cc1F | inconclusive [inhibitor, full curve, poor fit] |
| Cc1ccc(S(=O)(=O)N2CCC(C(=O)OCC(=O)N3CCCC3=O)CC2)cc1C | inconclusive [inhibitor, single point] |
| CC1=C(Nc2ccc(C(=O)O)cc2)C(=O)c2ccccc2C1=O | inactive |
| CCCCNc1ccc(S(N)(=O)=O)cc1[N+](=O)[O-] | inconclusive [inhibitor, full curve, poor fit] |
| CCOC(=O)c1c(C)[nH]c(C(=O)COC(=O)c2cn(CC)c3nc(C)ccc3c2=O)c1C | inconclusive [inhibitor, partial curve, poor fit] |
| CSCC[C@@H](CO)NC(=O)c1ccc2nc(C3CCCCC3)oc2c1 | inconclusive [inhibitor, full curve, poor fit] |
| Cn1nc(C(F)(F)F)c(CO)c1Sc1ccc(F)cc1 | inconclusive [inhibitor, partial curve, poor fit] |
| COCc1cc(C)c2c(N)c(C#N)sc2n1 | inconclusive [inhibitor, partial curve, poor fit] |
| CCc1ccc(NC2=NC(C(=O)NC3CCCCC3)CC(=O)N2)cc1 (stereo not given) | inconclusive [inhibitor, full curve, poor fit] |
| O=C(Nc1ccccc1N1CCCC1)C1CCN(S(=O)(=O)c2cccc(C(F)(F)F)c2)CC1 | inconclusive [inhibitor, single point] |
| O=C(c1ccc2c(=O)n(-c3ccccc3)c(=O)[nH]c2c1)N1CCN(c2ccc(F)cc2)CC1 | inconclusive [inhibitor, full curve] |
| CC(=O)N1CCCc2cc(S(=O)(=O)N(CC(C)C)CC(C)C)ccc21 | inconclusive [inhibitor, full curve, poor fit] |
| Cc1ccc(-n2nnnc2SCC(=O)N2CCc3ccccc3C2)c(C)c1 | inconclusive [inhibitor, full curve, poor fit] |
| Cc1ccccc1C(=O)Nc1ccc(Cl)cn1 | inconclusive [inhibitor, partial curve, poor fit] |

| Compound | Potency |
| --- | --- |
| CCCCC1OC23CCCCC2C(C#N)(C(=N)O3)C1(C#N)C#N (stereo not given) | inconclusive [inhibitor, full curve, poor fit] |
| COc1cc(C(=O)Nc2ccc(C)cn2)c([N+](=O)[O-])cc1OC | inconclusive [inhibitor, single point] |
| COC(=O)CC(c1ccc(F)cc1)n1c(C)ccc1C (stereo not given) | inactive |
| CC(C)COc1ccc2[nH]c3c(c2c1)CCCC3=O | inconclusive [inhibitor, partial curve, poor fit] |
| CCOC(=O)CN1C(=O)C(CC)Oc2ccccc21 (stereo not given) | inconclusive [inhibitor, partial curve, poor fit] |
| CCN1CCN(c2ncnc3c2sc(=S)n3-c2ccccc2)CC1 | inconclusive [inhibitor, partial curve] |
| Cc1nn(-c2ccccc2)c2sc(C(=O)OCC(=O)N3CCCCC3)cc12 | inconclusive [inhibitor, partial curve, poor fit] |
| O=[N+]([O-])[N-][n+]1cnn(Cc2ccccc2)c1 | inconclusive [inhibitor, full curve] |
| Cc1noc(C)c1COc1ccc(C(=O)N2CCN(c3ccccc3F)CC2)cc1 | inconclusive [inhibitor, full curve, poor fit] |
| O=C(O)CCCC(=O)N1CCN(c2nc(-c3ccccc3)c3ccccc3n2)CC1 | inconclusive [inhibitor, full curve, poor fit] |
| CCCCN(CC)c1nc(N)c(C#N)c(CC#N)c1C#N | inconclusive [inhibitor, full curve, poor fit] |
| CCOc1ccccc1N1CCN(CC(=O)NC(=O)NCc2ccco2)CC1 | inconclusive [inhibitor, full curve, poor fit] |
| CC1(C)NC(=O)N(CCOCCSc2ccccc2)C1=O | inconclusive [inhibitor, full curve, poor fit] |
| COc1ccccc1NS(=O)(=O)c1ccc(NC(=O)N2CCCCC2)cc1 | inactive |
| COc1ccc(CN(C(=O)c2ccc(-c3ccccc3)[nH]2)C(C(=O)NCC2CCCO2)c2ccc(C)o2)cc1 (stereo not given) | inconclusive [inhibitor, full curve, poor fit] |
| O=C(COC(=O)C12CC3CC(CC(C3)C1)C2)N1CCN(S(=O)(=O)c2ccccc2)CC1 | inconclusive [inhibitor, full curve, poor fit] |
| COc1ccc(OC)c(NC(=O)C2CC2c2ccccc2)c1 (stereo not given) | inconclusive [inhibitor, full curve] |
| CC1CCCN(C(=O)C2CCN(CCCc3ccccc3)CC2)C1 (stereo not given) | inconclusive [inhibitor, full curve, poor fit] |
| COC(=O)c1ccc(NC(=O)N2CCOCC2)cc1 | inconclusive [inhibitor, partial curve, poor fit] |
| COc1cccc(CNC(=O)CCC2CCCN(C(=O)c3cc4ccccc4o3)C2)c1 (stereo not given) | inactive |
| CN(C)S(=O)(=O)c1cccc(NC(=O)CCSc2ccc(Cl)cc2)c1 | inconclusive [inhibitor, full curve, poor fit] |
